Data as given in PubChem BioAssay AID1460 (National Center for Advancing Translational Sciences (NCATS), 2008).
Out of some 270,000 compounds screened, about 5,800 (2.1%) were called active. The shares of active, inactive and inconclusive entries below differ from those in the screen. Calls follow the shape of the dose curve; as a rule, active = well fitted inhibition curve with a large enough effect; inconclusive = small, poorly fitted or top-dose-only effect; inactive = flat fitted curve, though single readings scatter. Where the call is inconclusive, the potency comes from a doubtful curve fit.

biological target: Microtubule-associated protein tau (Homo sapiens) (UniProt P10636); test: qHTS for Inhibitors of Tau Fibril Formation, Thioflavin T Binding; conditions: recombinant tau K18 P301L (four-repeat tau fragment), heparin-induced fibrillization, ThT fluorescence; series mostly up to 57.4 µM; also: nearly all actives have a fitted effect of over 55% in size
UniProt P10636, sequence (P10636 whole entry, looked up, the tested form may be a part): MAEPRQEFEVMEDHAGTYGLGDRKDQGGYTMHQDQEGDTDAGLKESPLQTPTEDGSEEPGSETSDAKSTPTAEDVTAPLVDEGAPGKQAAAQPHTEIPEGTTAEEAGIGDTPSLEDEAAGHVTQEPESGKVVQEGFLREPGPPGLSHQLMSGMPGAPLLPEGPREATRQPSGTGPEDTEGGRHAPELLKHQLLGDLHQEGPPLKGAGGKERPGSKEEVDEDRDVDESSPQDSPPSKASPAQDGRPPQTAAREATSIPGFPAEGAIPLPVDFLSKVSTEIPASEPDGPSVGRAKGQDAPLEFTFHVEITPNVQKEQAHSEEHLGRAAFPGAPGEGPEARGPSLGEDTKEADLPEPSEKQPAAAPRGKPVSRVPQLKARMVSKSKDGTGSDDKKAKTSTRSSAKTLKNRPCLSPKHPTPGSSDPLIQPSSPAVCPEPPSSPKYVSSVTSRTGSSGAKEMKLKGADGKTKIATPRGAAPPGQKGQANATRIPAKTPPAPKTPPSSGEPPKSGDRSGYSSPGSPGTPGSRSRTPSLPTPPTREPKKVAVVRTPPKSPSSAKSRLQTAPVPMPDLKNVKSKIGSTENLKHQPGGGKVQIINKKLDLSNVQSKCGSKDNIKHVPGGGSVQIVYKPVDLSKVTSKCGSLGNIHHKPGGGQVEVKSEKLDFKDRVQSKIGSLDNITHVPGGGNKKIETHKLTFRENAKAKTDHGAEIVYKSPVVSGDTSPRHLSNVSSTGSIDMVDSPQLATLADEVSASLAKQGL
Method in brief: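 K18 P301L tau (15 uM + 0.24 uM Alexa 594-tagged), heparin 20 uM, NaOAc pH 7, 6 h 37 C; ThT 30 uM, 1 h RT, ex 450/em 510 nm.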
Potency is read from the fitted curve at half-maximal effect; tags tell the direction and shape of the fitted curve.

Row | Structure (SMILES) | Potency
1 | Cc1ccc(NC(=S)NCC23C=CC(O2)C2C(=O)N(c4ccc(C)cc4)C(=O)C23)cc1 (stereo not drawn) | inactive
2 | COc1ccccc1N1CCN(C(=O)CSc2nc3ccccc3o2)CC1 | inconclusive: 31.6 µM [inhibitor, partial curve]
3 | Cc1noc(/C=C/N(C)C)c1S(=O)(=O)N1CCCC(C(=O)NCc2ccco2)C1 (stereo not drawn) | active: 28.2 µM
4 | O=C(Nc1ccc2c(c1)N(C1CCCC1)C(=O)c1ccccc1S2)c1ccccc1 | inactive
5 | COc1cccc(C(=O)/C=C/Nc2ccc(S(=O)(=O)Nc3onc(C)c3C)cc2)c1 | inconclusive: 14.1 µM [inhibitor, partial curve]
6 | CN(C(=S)Nc1ccccc1)c1ccccc1 | inactive
7 | Cc1c(C#N)c(NC(=O)CCl)n(Cc2ccc(F)cc2)c1C | inconclusive: 31.6 µM [inhibitor, single point]
8 | O=S(=O)(Nc1nc2n(n1)C(c1ccccc1)C=C(c1ccc(Cl)cc1)N2)c1ccccc1 (stereo not drawn) | inconclusive: 15.8 µM [inhibitor, partial curve]
9 | COc1ccc(-c2noc(-c3ccccc3NC(=O)c3cc(OC)c(OC)c(OC)c3)n2)cc1 | inconclusive: 7.94 µM [inhibitor, partial curve, poor fit]
10 | C=CCN1C(=O)/C(=C\C=C2\N(C)c3ccccc3C2(C)C)SC1=S | inconclusive: 2.51 µM [inhibitor, full curve]
11 | COc1cccc(N2C(=O)CC(N3CCN(CCN=CC4=C(O)CC(C)(C)CC4=O)CC3)C2=O)c1 (stereo not drawn) | inactive
12 | Cc1ccc(NC(=O)N2CCN(c3ccccn3)CC2)cc1 | inconclusive: 1.41 µM [inhibitor, full curve, poor fit]
13 | COc1ccc(CCNC(=O)CSc2ccc(-c3ccncc3)nn2)cc1 | inactive
14 | COc1ccc(C2N(c3ccccc3)CCN2c2ccccc2)cc1O | inconclusive: 8.91 µM [inhibitor, partial curve]
15 | COc1ccc(NC(=O)C(Cc2ccccc2)n2cccc2)c(OC)c1 (stereo not drawn) | inconclusive: 25.1 µM [inhibitor, single point]
16 | NC(=O)CC(NC(=O)Cc1ccc(Br)cc1)c1ccc(NCc2ccc(F)cc2)c([N+](=O)[O-])c1 (stereo not drawn) | inconclusive: 1 µM [inhibitor, full curve]
17 | CC(=O)c1cnn(-c2nc3c(C)cccc3s2)c1C | inconclusive: 20 µM [inhibitor, partial curve]
18 | Cc1ccc2[nH]cc(CCNC(=O)Nc3ccccc3)c2c1 | inconclusive: 25.1 µM [inhibitor, partial curve, poor fit]
19 | CCc1cccc(NC(=O)CCS(=O)(=O)c2ccc(C)cc2)c1 | inactive
20 | CCc1ccc(C2c3c(n[nH]c3C)C(=O)N2c2ccc(C)cc2)cc1 (stereo not drawn) | inactive
21 | CCOc1ccc(-c2ccc(CO)o2)cc1N | inconclusive: 11.2 µM [inhibitor, partial curve]
22 | N#Cc1c(C#N)c(O)c2ccccc2c1O | active: 14.1 µM
23 | Cc1cc(-c2cc(-c3ccc(Cl)cc3)nc(N)c2C#N)co1 | inconclusive: 35.5 µM [inhibitor, single point]
24 | O=c1oc2ccc(Br)cc2cc1-c1nc2ccccc2o1 | inconclusive: 3.55 µM [inhibitor, full curve]
25 | Cc1cc(=O)[nH]c(SCC(=O)Nc2nc3ccccc3s2)n1 | inconclusive: 35.5 µM [inhibitor, partial curve]

Row | Structure (SMILES) | Potency
26 | O=C(CN1C(=O)C2(OCCO2)c2ccccc21)c1ccc(F)cc1 | inactive
27 | CCOC(=O)c1c(C)oc2nc(C)nc(NCCCN3CCN(c4cccc(C)c4)C(C)C3)c12 (stereo not drawn) | inconclusive: 3.55 µM [inhibitor, full curve]
28 | O=C(NCCCN1CCN(c2ccccc2)CC1)c1cc2c(s1)-c1ccccc1OC2 | inconclusive: 12.6 µM [inhibitor, partial curve]
29 | O=C1N=C(N2CCOCC2)S/C1=C\c1ccc(OS(=O)(=O)c2ccccc2)cc1 | inconclusive: 15.8 µM [inhibitor, single point]
30 | CCN(CC)c1ccc(NC(=S)NC(=O)Cc2ccccc2)cc1 | inactive
31 | O=C(COc1ccccc1F)Nc1nnc(S(=O)(=O)N2CCCCCC2)s1 | active: 14.1 µM
32 | O=C(/C=C\Nc1cccc(F)c1)c1cccs1 | inconclusive: 8.91 µM [inhibitor, partial curve]
33 | O=C(COC(=O)Cc1cn2ccsc2n1)Nc1nc2ccccc2s1 | inconclusive: 31.6 µM [inhibitor, single point]
34 | COc1ccc(/C=N/NC(=O)Cn2nc([N+](=O)[O-])cc2C)c(OC)c1OC | inactive
35 | COc1ccccc1N1CCN(C(=O)CSc2nc(-c3ccc(C(C)C)cc3)no2)CC1 | inconclusive: 3.98 µM [inhibitor, full curve]
36 | N#CCCn1c(SCC(=O)c2c[nH]c3ccccc23)nc2ccccc21 | inconclusive: 20 µM [inhibitor, single point]
37 | C/C(CC(C)C)=N\Nc1ccc(S(N)(=O)=O)cc1[N+](=O)[O-] | inconclusive: 17.8 µM [inhibitor, partial curve]
38 | CCCc1[nH]nc2c1C(c1cccc(OC(=O)c3ccco3)c1)C(C#N)=C(N)O2 (stereo not drawn) | inconclusive: 25.1 µM [inhibitor, partial curve]
39 | O=C(Nc1ccc(N2CCN(C(=O)c3ccc(Cl)cc3)CC2)cc1)c1cccnc1 | inconclusive: 15.8 µM [inhibitor, partial curve]
40 | CCOc1ccc(Oc2ccc(Cl)cc2N)cc1 | inconclusive: 28.2 µM [inhibitor, single point]
41 | CCn1ccc(C(=O)NC2C(=O)N3C(C(=O)O)=C(C)CSC23)n1 (stereo not drawn) | inactive
42 | CC1(C)CC(=O)C2=C(C1)N(c1ccccc1)C(=O)C2(O)C(F)(F)F (stereo not drawn) | inactive
43 | OCCN1CCN(Cc2cc(Cl)c3cccnc3c2O)CC1 | inconclusive: 12.6 µM [inhibitor, partial curve]
44 | O=S1(=O)C=C(N2CCOCC2)c2ccccc21 | inconclusive: 28.2 µM [inhibitor, partial curve]
45 | Cc1nc2ccccc2n1/C(=N\S(=O)(=O)c1ccccc1)c1ccccc1 | inactive
46 | NS(=O)(=O)c1ccc(Nc2nc(-c3ccc(O)cc3)cs2)cc1 | active: 12.6 µM
47 | CCCCCc1nnc(NC(=O)Cc2cccs2)s1 | inactive
48 | COc1ccc(O)c(C(=O)c2cnc3c(c2)c(-c2ccc(F)cc2)c(C#N)c(=O)n3C)c1 | inconclusive: 20 µM [inhibitor, partial curve]
49 | CCc1ccc(-c2nc(CSCC(=O)NCc3ccc(C)cc3)c(C)o2)cc1 | inconclusive: 7.08 µM [inhibitor, partial curve]
50 | CCc1ccc(NC(=O)c2sc3nc(C)cc(C)c3c2NC(=O)c2ccccc2OC)cc1 | inactive

Row | Structure (SMILES) | Potency
51 | Oc1ccc(C2C(c3ccccc3)=NN=C(c3ccccc3F)N2O)c(O)c1 (stereo not drawn) | inactive
52 | CCc1cc(C(=O)N2CCCC(CNS(=O)(=O)c3cccs3)C2)n(C)n1 (stereo not drawn) | inactive
53 | COc1ccc(NC(=S)NCCc2ccccc2OC)c(OC)c1 | inactive
54 | Cc1ccnc(SCC(N)=O)n1 | inactive
55 | Cn1c(O)c(N=NC(=O)c2ccco2)c2ccccc21 | inconclusive: 25.1 µM [inhibitor, partial curve]
56 | Brc1ccccc1-c1nnc(SCc2nc3ccccc3s2)o1 | inconclusive: 25.1 µM [inhibitor, partial curve]
57 | Cc1ccc(-n2[nH]c(C)c(C=Nc3ccc(C)cn3)c2=O)cc1 | inconclusive: 8.91 µM [inhibitor, partial curve]
58 | Cc1cc(C)c2ccc(C(=O)O)nc2c1O | inconclusive: 11.2 µM [inhibitor, partial curve]
59 | Cc1ccc(C(=O)NN2C(=O)/C(=C/c3cccn3C)SC2=S)cc1 | active: 5.01 µM
60 | Cn1ncc(C#N)c1/N=C/N(Cc1ccccc1)Cc1ccccc1 | inconclusive: 28.2 µM [inhibitor, single point]
61 | COc1ccc(/C=N/OC(=O)Nc2ccccc2)cc1[N+](=O)[O-] | inconclusive: 20 µM [inhibitor, single point]
62 | COc1ccc(CNC(=O)C2CCN(S(=O)(=O)c3ccc4c(ccn4C)c3)CC2)cc1 | inactive
63 | O=C(COc1cc(F)ccc1[N+](=O)[O-])NCCCc1ccccc1 | inconclusive: 3.98 µM [inhibitor, single point]
64 | CC(C)c1cccc(C(C)C)c1NS(=O)(=O)c1cccs1 | inactive
65 | CCCCCc1nnc(NC(=O)C2CCCO2)s1 (stereo not drawn) | inactive
66 | CCC(=O)N(Cc1ccco1)c1nc(C(=O)Nc2ccc(Cl)cc2)c(C)s1 | inactive
67 | O=C(CCCl)N(Cc1nc2ccccc2c(=O)[nH]1)Cc1cccs1 | inactive
68 | Cc1ccc(S(=O)(=O)N2CCOCC2)cc1C(=O)OCC(=O)NC1CCS(=O)(=O)C1 (stereo not drawn) | inactive
69 | CCOc1cc(C(=O)NCC(=O)N/N=C/c2sccc2C)cc(OCC)c1OCC | inconclusive: 0.224 µM [activator, full curve, poor fit]
70 | Cc1cccc(OCCn2c(-c3ccc(Cl)cc3)nc3ccccc3c2=O)c1C | inactive
71 | O=C(OCc1ccccc1)C1=[N+]([O-])OC(C(=O)OCc2ccccc2)C1c1c[nH]c2ccccc12 (stereo not drawn) | inconclusive: 5.62 µM [inhibitor, partial curve]
72 | COc1cc(-c2nnc(COc3ccc4ccccc4c3)o2)cc(OC)c1OC | inconclusive: 6.31 µM [inhibitor, partial curve]
73 | O=C(NCCCN1CCN(c2ccc(F)cc2)CC1)c1ccc2nc(CCc3ccccc3)oc2c1 | inconclusive: 14.1 µM [inhibitor, partial curve]
